Paper PMC4889068
No constants are given. Whether binding was seen depends on the method and setting. Binding seen in cells or lysates may run through a third protein. Some binding calls cover weakened binding; strength is not graded here.

By UniProt entry, the sequences of proteins in these tests, tags left out. Where a name states a change or a piece, a line headed by the entry shows the natural chain unless it says otherwise. Residues count along the entry.
UniProt P08238: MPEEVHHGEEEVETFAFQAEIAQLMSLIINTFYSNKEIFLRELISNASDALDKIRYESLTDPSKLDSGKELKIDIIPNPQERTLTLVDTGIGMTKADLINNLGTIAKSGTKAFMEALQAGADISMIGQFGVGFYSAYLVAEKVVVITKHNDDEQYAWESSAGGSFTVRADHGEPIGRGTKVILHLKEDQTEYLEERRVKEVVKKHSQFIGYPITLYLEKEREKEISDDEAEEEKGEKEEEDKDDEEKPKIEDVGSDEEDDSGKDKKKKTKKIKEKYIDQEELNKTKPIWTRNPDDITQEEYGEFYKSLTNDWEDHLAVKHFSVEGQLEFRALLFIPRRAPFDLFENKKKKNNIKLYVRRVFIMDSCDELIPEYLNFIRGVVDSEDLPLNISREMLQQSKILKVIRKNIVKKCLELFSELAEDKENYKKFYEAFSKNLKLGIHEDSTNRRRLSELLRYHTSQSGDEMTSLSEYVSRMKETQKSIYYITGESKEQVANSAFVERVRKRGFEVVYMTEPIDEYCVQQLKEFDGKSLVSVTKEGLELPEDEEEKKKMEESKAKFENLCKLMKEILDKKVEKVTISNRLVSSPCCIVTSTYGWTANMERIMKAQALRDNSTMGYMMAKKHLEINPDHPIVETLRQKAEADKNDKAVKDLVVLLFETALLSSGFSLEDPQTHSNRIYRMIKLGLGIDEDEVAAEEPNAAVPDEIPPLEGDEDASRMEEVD
Hsp90β(N+M)-3xFLAG: residues 1-546 of P08238
Hsp90β(M+C)-3xFLAG: residues 206-724 of P08238
Hsp90β(M)-3xFLAG: residues 206-546 of P08238

What was measured:
[1] = target: Hsp90β-3xFLAG (full length human Hsp90β with N-terminal FLAG and HA tags) (human) (UniProt P08238); experiment: condition: only cells treated with 1 μM radicicol for 2 hrs; co-IP; as a1, HEp-2 cells expressing Hsp90β-3xFLAG treated with 1 μM radicicol for 2 hrs before lysis
[2] = target: Hsp90β-3xFLAG (full length human Hsp90β with N-terminal FLAG and HA tags) (human) (UniProt P08238); experiment: condition: only cells treated with 1 mM novobiocin for 2 hrs; co-IP; as a1, HEp-2 cells expressing Hsp90β-3xFLAG treated with 1 mM novobiocin for 2 hrs before lysis
[3] = target: Hsp90α-3xFLAG (full length human Hsp90α with N-terminal FLAG and HA tags) (human) (UniProt P07900); experiment: co-IP; lysate of transfected HEp-2 cells on anti-FLAG agarose, 4°C, 3 hrs, IP buffer 10 mM Tris-HCl pH 7.5, 50 mM KCl, 3 mM MgCl2, 0.1% Triton X-100; eluted with 0.1 M glycine pH 3.5, Western blot; also with cells treated with 1 μM radicicol or 1 mM novobiocin for 2 hrs
Hsp90β(M)-3xFLAG (human) = Hsp90β(M)-3xFLAG (human) (UniProt P08238); experiment: as above
[4] = target: Hsp90β(M+C)-3xFLAG (human) (UniProt P08238); experiment: as above
[5] = target: Hsp90β(N+M)-3xFLAG (human) (UniProt P08238); experiment: as above
[6] = target: Hsp90β-3xFLAG (full length human Hsp90β with N-terminal FLAG and HA tags) (human) (UniProt P08238); experiment: as above

- binding [1]: no binding
- binding [2]: no binding
- binding [3]: binds
- binding (Hsp90β(M)-3xFLAG (human)): no binding
- binding [4]: no binding
- binding [5]: no binding
- binding [6]: binds
B1: Sgt1 (Suppressor of G2 allele of Skp1), endogenous in HEp-2 cells (protein, UniProt Q9Y2Z0 1-365)
chain: MAAAAAGTATSQRFFQSFSDALIDEDPQAALEELTKALEQKPDDAQYYCQRAYCHILLGNYCVAVADAKKSLELNPNNSTAMLRKGICEYHEKNYAAALETFTEGQKLDIETGFHRVGQAGLQLLTSSDPPALDSQSAGITGADANFSVWIKRCQEAQNGSESEVWTHQSKIKYDWYQTESQVVITLMIKNVQKNDVNVEFSEKELSALVKLPSGEDYNLKLELLHPIIPEQSTFKVLSTKIEIKLKKPEAVRWEKLEGQGDVPTPKQFVADVKNLYPSSSPYTRNWDKLVGEIKEEEKNEKLEGDAALNRLFQQIYSDGSDEVKRAMNKSFMESGGTVLSTNWSDVGKRKVEINPPDDMEWKKY
